Source: the supplement of paper PMC4604168 (melanoma cell lines)
Some of the results follow. Single values are uncertain, as repeats are few or missing.

What was measured:
Test in all cases: cell count relative to DMSO control; melanoma cells; higher = more viable cells
Details in all cases: library dose: low library concentration; 72 h
[1] = test system: WM115
[2] = test system: WM1716
[3] = test system: WM1745
[4] = test system: WM3526
[5] = test system: WM3619
[6] = test system: WM451Lu
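Also: cell number obtained by counting DAPI-stained nuclei in high-throughput microscope images with image analysis software, screen run in 1,536-well plates.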

Structure (SMILES) | cell count [1] [%] | cell count [2] [%] | cell count [3] [%] | cell count [4] [%] | cell count [5] [%] | cell count [6] [%]
CC1(C)CCC(c2ccc(Cl)cc2)=C(CN2CCN(c3ccc(C(=O)NS(=O)(=O)c4ccc(N[C@H](CCN5CCOCC5)CSc5ccccc5)c(S(=O)(=O)C(F)(F)F)c4)cc3)CC2)C1 + O=c1cc(-c2cccc3c2Sc2ccccc2S3)oc(N2CCOCC2)c1 [KU55933] (first compound 0.4 µM, partner dose 1 µM) | 90.6 | 81.1 | 19.2 | 88.6 | 78.5 | 98.1
Cc1ccc(Nc2nccc(N(C)c3ccc4c(C)n(C)nc4c3)n2)cc1S(N)(=O)=O [Pazopanib] + Oc1nc(-c2ccc(C(F)(F)F)cc2)nc2c1CSCC2 [XAV939] (first compound 0.4 µM, partner dose 2 µM) | 94.7 | 48.5 | 84.4 | 90.8 | 64.3 | 84.2
CC1(C)CCC(c2ccc(Cl)cc2)=C(CN2CCN(c3ccc(C(=O)NS(=O)(=O)c4ccc(N[C@H](CCN5CCOCC5)CSc5ccccc5)c(S(=O)(=O)C(F)(F)F)c4)cc3)CC2)C1 + O=C(Nc1ccccc1)c1cc([N+](=O)[O-])ccc1Cl [GW9662] (first compound 0.4 µM, partner dose 2 µM) | 84.8 | 80.6 | 26.2 | 84.5 | 79.5 | 85.3
O=C(/C=C/c1cccnc1)NCCCCC1CCN(C(=O)c2ccccc2)CC1 + OCc1c[nH]c2ccccc12 [Indole-3-carbinol] (first compound 0.01 µM, partner dose 0.8 µM) | 95.2 | 95.1 | 103 | 98.5 | 85.4 | 110
O=C(/C=C/c1cccnc1)NCCCCC1CCN(C(=O)c2ccccc2)CC1 + COc1cc(Nc2ncc(F)c(Nc3ccc4c(n3)NC(=O)C(C)(C)O4)n2)cc(OC)c1OC [Tamatinib] (first compound 0.01 µM, partner dose 0.4 µM) | 70.6 | 74.4 | 76.8 | 81.5 | 92 | 83.3
O=C(/C=C/c1cccnc1)NCCCCC1CCN(C(=O)c2ccccc2)CC1 + O=C(O)c1ccc2c(c1)nc(Nc1cccc(Cl)c1)c1ccncc12 [CX4945] (first compound 0.01 µM, partner dose 0.4 µM) | 101 | 80.7 | 97.2 | 82.9 | 89.8 | 98
CC1(C)CCC(c2ccc(Cl)cc2)=C(CN2CCN(c3ccc(C(=O)NS(=O)(=O)c4ccc(N[C@H](CCN5CCOCC5)CSc5ccccc5)c(S(=O)(=O)C(F)(F)F)c4)cc3)CC2)C1 + C=CCn1c(=O)c2cnc(Nc3ccc(N4CCN(C)CC4)cc3)nc2n1-c1cccc(C(C)(C)O)n1 [MK1775] (first compound 0.4 µM, partner dose 0.02 µM) | 73.7 | 50 | 5.8 | 61.1 | 37.7 | 88.9
CC1(C)CCC(c2ccc(Cl)cc2)=C(CN2CCN(c3ccc(C(=O)NS(=O)(=O)c4ccc(N[C@H](CCN5CCOCC5)CSc5ccccc5)c(S(=O)(=O)C(F)(F)F)c4)cc3)CC2)C1 + CCCCCCCCc1ccc(CCC(N)(CO)CO)cc1 [fingolimod] (first compound 0.4 µM, partner dose 2 µM) | 80.8 | 71.8 | 5.93 | 71.7 | 80.1 | 92.6
O=C(/C=C/c1cccnc1)NCCCCC1CCN(C(=O)c2ccccc2)CC1 + COc1ccc(Cl)c(Nc2nc3ccccc3nc2NS(=O)(=O)c2cccc(NC(=O)C(C)(C)N)c2)c1 [XL147] (first compound 0.01 µM, partner dose 0.8 µM) | 97.9 | 92.9 | 99.4 | 115 | 77.3 | 90.9
Cc1ccc(Nc2nccc(N(C)c3ccc4c(C)n(C)nc4c3)n2)cc1S(N)(=O)=O [Pazopanib] + O=C(O)c1ccc2c(c1)nc(Nc1cccc(Cl)c1)c1ccncc12 [CX4945] (first compound 0.4 µM, partner dose 0.4 µM) | 101 | 85.9 | 114 | 83.6 | 114 | 89.8
Cc1ccc(Nc2nccc(N(C)c3ccc4c(C)n(C)nc4c3)n2)cc1S(N)(=O)=O [Pazopanib] + O=C(Nc1cccc(Cl)c1)Nc1ncc(CCNc2ncnc3ccsc23)s1 [SNS314] (first compound 0.4 µM, partner dose 0.0008 µM) | 83.6 | 71.4 | 90.8 | 84.1 | 86.5 | 99.2
CC1(C)CCC(c2ccc(Cl)cc2)=C(CN2CCN(c3ccc(C(=O)NS(=O)(=O)c4ccc(N[C@H](CCN5CCOCC5)CSc5ccccc5)c(S(=O)(=O)C(F)(F)F)c4)cc3)CC2)C1 + O=S(=O)(c1ccccc1)N(CC(F)(F)F)c1ccc(C(O)(C(F)(F)F)C(F)(F)F)cc1 [T0901317] (first compound 0.4 µM, partner dose 1.4 µM) | 76.9 | 60.2 | 17.4 | 80.9 | 77.6 | 97.3
Cc1ccc(Nc2nccc(N(C)c3ccc4c(C)n(C)nc4c3)n2)cc1S(N)(=O)=O [Pazopanib] + CCCS(=O)(=O)Nc1ccc(F)c(C(=O)c2c[nH]c3ncc(Cl)cc23)c1F [PLX4720] (first compound 0.4 µM, partner dose 0.08 µM) | 103 | 101 | 84.1 | 108 | 116 | 111
O=C(/C=C/c1cccnc1)NCCCCC1CCN(C(=O)c2ccccc2)CC1 + Cc1ccc(Nc2nccc(N(C)c3ccc4c(C)n(C)nc4c3)n2)cc1S(N)(=O)=O [Pazopanib] (first compound 0.01 µM, partner dose 0.4 µM) | 101 | 94.2 | 81.7 | 111 | 75.6 | 116
Cc1ccc(Nc2nccc(N(C)c3ccc4c(C)n(C)nc4c3)n2)cc1S(N)(=O)=O [Pazopanib] + CN(NC(=O)CC(=O)NN(C)C(=S)c1ccccc1)C(=S)c1ccccc1 [STA4783] (first compound 0.4 µM, partner dose 0.006 µM) | 88.1 | 45 | 40.5 | 96.7 | 65.8 | 88.9
O=C(/C=C/c1cccnc1)NCCCCC1CCN(C(=O)c2ccccc2)CC1 + CN(NC(=O)CC(=O)NN(C)C(=S)c1ccccc1)C(=S)c1ccccc1 [STA4783] (first compound 0.01 µM, partner dose 0.006 µM) | 77.3 | 58.3 | 28.1 | 101 | 41.6 | 131
Cc1ccc(Nc2nccc(N(C)c3ccc4c(C)n(C)nc4c3)n2)cc1S(N)(=O)=O [Pazopanib] + CN(C)S(=O)(=O)c1ccc2c(c1)/C(=C/c1cc3c([nH]1)CCCC3)C(=O)N2 [SU6656] (first compound 0.4 µM, partner dose 0.4 µM) | 66.9 | 92.5 | 88.6 | 88.6 | 97.3 | 123
O=C(/C=C/c1cccnc1)NCCCCC1CCN(C(=O)c2ccccc2)CC1 + O=C(O)C(=O)Nc1sc2c(c1C(=O)O)CCNC2 [TCS401] (first compound 0.01 µM, partner dose 1.66667 µM) | 86.3 | 87.4 | 92.5 | 97.3 | 86.4 | 88.2
CC1(C)CCC(c2ccc(Cl)cc2)=C(CN2CCN(c3ccc(C(=O)NS(=O)(=O)c4ccc(N[C@H](CCN5CCOCC5)CSc5ccccc5)c(S(=O)(=O)C(F)(F)F)c4)cc3)CC2)C1 + Nc1ccn([C@@H]2O[C@H](CO)[C@@H](O)C2(F)F)c(=O)n1 [gemcitabine] (first compound 0.4 µM, partner dose 0.0004 µM) | 80.5 | 63.6 | 15.4 | 97.6 | 61.7 | 90.8
O=C(/C=C/c1cccnc1)NCCCCC1CCN(C(=O)c2ccccc2)CC1 + c1cc(-c2cnn3cc(-c4ccc(OCCN5CCCCC5)cc4)cnc23)ccn1 [Dorsomorphin] (first compound 0.01 µM, partner dose 0.4 µM) | 103 | 95.3 | 95.3 | 91 | 88.5 | 111
Cc1ccc(Nc2nccc(N(C)c3ccc4c(C)n(C)nc4c3)n2)cc1S(N)(=O)=O [Pazopanib] + C[C@]1(c2nc3c(C(N)=O)cccc3[nH]2)CCCN1 [Veliparib] (first compound 0.4 µM, partner dose 1.4 µM) | 94.2 | 74.7 | 104 | 77.5 | 111 | 89.9
CC1(C)CCC(c2ccc(Cl)cc2)=C(CN2CCN(c3ccc(C(=O)NS(=O)(=O)c4ccc(N[C@H](CCN5CCOCC5)CSc5ccccc5)c(S(=O)(=O)C(F)(F)F)c4)cc3)CC2)C1 + Nc1ncn([C@H]2C[C@H](O)[C@@H](CO)O2)c(=O)n1 [decitabine] (first compound 0.4 µM, partner dose 0.1 µM) | 60.1 | 56.6 | 10.3 | 83.2 | 73.8 | 91.1
CC1(C)CCC(c2ccc(Cl)cc2)=C(CN2CCN(c3ccc(C(=O)NS(=O)(=O)c4ccc(N[C@H](CCN5CCOCC5)CSc5ccccc5)c(S(=O)(=O)C(F)(F)F)c4)cc3)CC2)C1 + Cc1cc(Nc2cc(N3CCN(C)CC3)nc(/C=C/c3ccccc3)n2)n[nH]1 [ENMD2076] (first compound 0.4 µM, partner dose 0.04 µM) | 81.8 | 70.4 | 3.81 | 90.1 | 65.1 | 77.5
CC1(C)CCC(c2ccc(Cl)cc2)=C(CN2CCN(c3ccc(C(=O)NS(=O)(=O)c4ccc(N[C@H](CCN5CCOCC5)CSc5ccccc5)c(S(=O)(=O)C(F)(F)F)c4)cc3)CC2)C1 + CC(C)CCN1c2nc(Nc3cc(F)c(O)c(F)c3)ncc2N(C)C(=O)C1C [BID1870] (first compound 0.4 µM, partner dose 0.2 µM) | 60.6 | 55.2 | 34.9 | 71.2 | 108 | 88.6
